# Values quoted from earlier work in patent publication US20110124589A1, “INHALED FOSFOMYCIN/TOBRAMYCIN FOR THE TREATMENT OF CHRONIC OBSTRUCTIVE PULMONARY DISEASE” (Gilead Sciences, Inc., priority 2009, published 2011).
# Conditions: aerosol administration; cited from earlier work
structure (smiles),measurement,value
NC[C@H]1O[C@H](O[C@H]2[C@H](O)[C@@H](O[C@H]3O[C@H](CO)[C@@H](O)[C@H](N)[C@H]3O)[C@H](N)C[C@@H]2N)[C@H](N)C[C@@H]1O [Tobramycin],sputum levels,1000 µg/mL
